Reference: the RNAGym collection of RNA variant scans (doi:10.7554/elife.90254)
The source gives no read counts; variants with many changes may rest on few reads.

B1: LINE1-mini (parent)
chain: GGCAGAGCUCAACACAGCGUGGCAAAGUGGCUGUGGCUAGACUGCC

Variants of: B1
Assay: self-cleavage, relative activity (ratio to wild type); higher = more cleavage; in vitro, sequencing; the parent is a self-cleaving ribozyme

Variant | self-cleavage
GGCAGAGCUGAACACAGCGUGGGACAGUGGCUGUGGCUAGACUGCC [C10G C23G A25C] | 0.1
GGCAGAGCUGAACACCGCGUGGCAAAGUGGCUGUGGCUAGACUGUC [C10G A16C C45U] | 0.02
GGCAGAGCUGAAUCCAGCGUGGCAAAGUGGCGGUGGCAACACUGCC [C10G C13U A14C U32G U38A G40C] | 0
GGCAGAGCUAAACACAGCGUGGCAAAAUGUCUGUGGCUAGCAUGCC [C10A G27A G30U A41C C42A] | 0
GGCAGAGCUGGACACAGCGUGGCAAAGUGGGUGUGGCUAGAUUACC [C10G A11G C31G C42U G44A] | 0
GGCAGAGCUGAACACAGCGUGGCAACGUGGCUGUCGCUAGACUGCC [C10G A26C G35C] | 0.03
GGCAGAGCUAAACACAGCGUGGCAAAGUGGCUGUGGCCAGACUGGC [C10A U38C C45G] | 0.02
GGCAGAGCUGAACCCAGCGUGGCAAAGUGGCUGUUGCUAGACUUCC [C10G A14C G35U G44U] | 0.01
GGCAGAGCUAAACACAGCGUGGCAAAGUGACUAUGGCUAGACUGCC [C10A G30A G33A] | 0.06
GGCAGAGCUAAACACAGCGCGGCAAAGUGGCUGUGGCUAGACCGCC [C10A U20C U43C] | 0.01
GGCAGAGCUAAACACAGCGUGGCAAAGCGGCUGUGGCUAUACUGCC [C10A U28C G40U] | 0.01
GGCAGAGCUGAACAUAGCGUGGCAACGUGGCUGUGGUUAGACUGCC [C10G C15U A26C C37U] | 0.02
GGCAGAGCUAAACACAGCGUGGCAAAGUGGCUGGGGUUAGACAGCC [C10A U34G C37U U43A] | 0
GGCAGAGCUAAACACAGCGUGGCAAAGUGCCUGUGGCUAGACUGAC [C10A G30C C45A] | 0.02
GGCAGAGCUGAAAACAGCGUGACAAUGUGGCUGUGGCUAGACUGCC [C10G C13A G22A A26U] | 0.03
GGCAGAGCUGAACACAGGGUGGCAAAGUGCGUGUGGCUAGACUGCC [C10G C18G G30C C31G] | 0
GGCAGAGCUGUACACAGCGUGGCAAAGUGGAUGUGGCUAGACUGCC [C10G A11U C31A] | 0.05
GGCAGAGCUGAACACCGCGUGGCAACGUGGCUGUGGCUAGAAUGCC [C10G A16C A26C C42A] | 0
GGCAGAGCUAAACACAGCGUGGCAAACUGUCUAUGGCUAGACUGCC [C10A G27C G30U G33A] | 0.02

Variant | self-cleavage
GGCAGAGCUGAACAAAGCGUGGCCAAUUUGCUGUGGCUAGACUGGC [C10G C15A A24C G27U G29U C45G] | 0.01
GGCAGAGCUGAACACAGUGUGGCAAAGAGGCUGUGGCUAGACUGCC [C10G C18U U28A] | 0.2
GGCAGAGCUGGGCAUAGCGUGGCAAAGGGGCUGUCCCUAGACUGCC [C10G A11G A12G C15U U28G G35C G36C] | 0
GGCAGAGCUAAACACAGCGCGGCAAAGUGGAUGUGGCUAGACUGCC [C10A U20C C31A] | 0.03
GGCAGAGCUAAACACAGCGUGGCAAAGUCGCAGUGACUAGACUGCC [C10A G29C U32A G36A] | 0.01
GGCAGAGCUAAACACAGCGUGGCAAAGGGGCUGUGGCUAGACUAUC [C10A U28G G44A C45U] | 0
GGCAGAGCUGAACACAGCGUGGCAACGUGGCUGAGGCUAGACUGAC [C10G A26C U34A C45A] | 0.02
GGCAGAGCUGCACACACCGUGGCAAAGUGGCUGUGGCUAGACUCGC [C10G A11C G17C G44C C45G] | 0
GGCAGAGCUGAACACAGAGUGGCAAAGUGGAUGUGGCUAGACUGCC [C10G C18A C31A] | 0.11
GGCAGAGCUGAACACAGGGUGGCAAAGUGGUUGUGGCUAGACUGCC [C10G C18G C31U] | 0.02
GGCAGAGCUAAACACAGCGUGGCAAAGUGGCGAUGGCUACACUGGG [C10A U32G G33A G40C C45G C46G] | 0.01
GGCAGAGCUGAACACAGCGUGGCAACGUGGCUGUGGCUUGUCUGCC [C10G A26C A39U A41U] | 0.04
GGCAGAGCUAAACACAGCGUGGCAAACUGGCUGUGGCCAGACUGUC [C10A G27C U38C C45U] | 0.02
GGCAGAGCUGAACAGAGCGGGGCUAAGUGGCUGUGGCUAGACUGCC [C10G C15G U20G A24U] | 0.01
GGCAGAGCUAAACACAGCGUGGCAAAGUGGCUGUGGCCAGAUUGCC [C10A U38C C42U] | 0.01
GGCAGAGCUAAACACAGCGUGGCAAAGUGGCCGUGGCUAGACUGCG [C10A U32C C46G] | 0
GGCAGAGCUAAACACAGCGUGGCAAAUUGGCUGUUGGUAGACUGCC [C10A G27U G35U C37G] | 0.03
GGCAGAGCUGAACCCAGCGUGGCAAAGUGGCUGUGACUAGCCUGCC [C10G A14C G36A A41C] | 0
GGCAGAGCUAAACACAGCGCGGCAAAGUAGCUGUGUUUAGACUGCC [C10A U20C G29A G36U C37U] | 0

Variant | self-cleavage
GGCAGAGCUGAAAACAGCGUGGCAAAGUGGCUGUGGCUAGAUUGCC [C10G C13A C42U] | 0.03
GGCAGAGCUAAACACAGCGUGGCAAAGUGGCUGUGGCUACACUGCU [C10A G40C C46U] | 0.01
GGCAGAGCUGAUCACAGCGAGGCAAAGUCUCUCCGGCUCGACUGCC [C10G A12U U20A G29C G30U G33C U34C A39C] | 0
GGCAGAGCUGAACAUAGCGUAGCAAAGUGGCUGUGGUUGGACUGCC [C10G C15U G21A C37U A39G] | 0.01
GGCAGAGCUGUACACAGCGUGGCUAAGUGGCUGUGGCUAGACUGCC [C10G A11U A24U] | 0.01
GGCAGAGCUGAACAGAGCGGGGCAAAGUGGCUGUGGCUAGACUGCC [C10G C15G U20G] | 0.01
GGCAGAGCUGACCACAGCGUGGCAAUGUGACUGUGGCUAGACUGGC [C10G A12C A26U G30A C45G] | 0
GGCAGAGCUAAACACAGCGUGGCAAAGCGGCUGUGGCUAGGCUGCC [C10A U28C A41G] | 0.05
GGCAGAGCUAAACACAGCGUGGCAAAGUGGCUUUUGCUAGACUGCC [C10A G33U G35U] | 0.01
GGCAGAGCUGAACUCAGCGUGGCAAGGUGGCUGUGGCUCGACUGCC [C10G A14U A26G A39C] | 0.01
GGCAGAGCUGAACACGGCGUCGCUAAAUGGCUGUGGCUAGACUCCC [C10G A16G G21C A24U G27A G44C] | 0.04
GGCAGAGCUGAACACCGCGUGGCAAAGUGGCUGUGGCUAGAUUGCC [C10G A16C C42U] | 0.03
GGCAGAGCUGAACUCAGCGUGGUAAAGCGGCUGUGACUAGACUGUC [C10G A14U C23U U28C G36A C45U] | 0.01
GGCAGAGCUGAACCCAACGUGGCAAAGUGGCUGUGGCUAGACUGCC [C10G A14C G17A] | 0.02
GGCAGAGCUGAAAACAGUGUGGCAAAGUUGCUGUGGCUAUACUGCU [C10G C13A C18U G29U G40U C46U] | 0.01
GGCAGAGCUAAACACAGCGUGGCAAAAUGGCUGUCGCUAGACUGCC [C10A G27A G35C] | 0.02
GGCAGAGCUGAAGACAGCGUGGCAAAGUGGCUGUGGCUAGACUGCG [C10G C13G C46G] | 0.03
GGCAGAGCUAAACACAGCGUGGCAAAGUGGCUGUGGCGAGAAUGCC [C10A U38G C42A] | 0.01
